# From the supplement of paper PMC3334620
# In all, about 33,000 sequences were measured (“E-score (-0.5 to 0.5)”: median about -0.035, highest 2% from about 0.35 on). The list shows a part of the results.
# Biological target: T1, Pdr3 (UniProt P33200)
# T1 sequence: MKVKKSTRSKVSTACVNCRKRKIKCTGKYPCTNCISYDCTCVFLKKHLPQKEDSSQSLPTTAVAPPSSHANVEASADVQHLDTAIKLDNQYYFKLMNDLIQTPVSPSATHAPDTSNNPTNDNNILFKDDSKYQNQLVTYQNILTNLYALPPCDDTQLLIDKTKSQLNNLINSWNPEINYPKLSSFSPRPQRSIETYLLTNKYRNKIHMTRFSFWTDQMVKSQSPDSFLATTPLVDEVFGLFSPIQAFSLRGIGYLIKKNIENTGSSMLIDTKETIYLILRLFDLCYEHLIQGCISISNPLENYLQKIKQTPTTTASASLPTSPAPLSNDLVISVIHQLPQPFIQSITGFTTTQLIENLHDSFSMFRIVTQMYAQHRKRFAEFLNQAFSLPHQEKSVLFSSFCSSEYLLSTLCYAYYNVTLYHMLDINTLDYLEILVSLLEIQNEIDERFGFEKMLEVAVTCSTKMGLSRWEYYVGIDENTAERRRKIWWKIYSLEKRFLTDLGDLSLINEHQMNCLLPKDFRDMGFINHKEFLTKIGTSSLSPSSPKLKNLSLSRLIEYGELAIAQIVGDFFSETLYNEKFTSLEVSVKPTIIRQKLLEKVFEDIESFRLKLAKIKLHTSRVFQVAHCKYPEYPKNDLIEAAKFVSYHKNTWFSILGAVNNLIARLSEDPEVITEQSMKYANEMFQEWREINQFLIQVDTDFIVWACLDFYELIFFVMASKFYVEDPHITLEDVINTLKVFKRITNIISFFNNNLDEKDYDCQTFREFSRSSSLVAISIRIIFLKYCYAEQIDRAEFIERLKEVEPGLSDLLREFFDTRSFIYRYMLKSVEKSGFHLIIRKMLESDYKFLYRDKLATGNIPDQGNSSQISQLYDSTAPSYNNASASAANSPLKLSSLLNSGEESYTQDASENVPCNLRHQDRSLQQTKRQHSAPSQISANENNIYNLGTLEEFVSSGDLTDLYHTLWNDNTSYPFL
# Test: PBM E-score (8-mer binding enrichment) (E-score (-0.5 to 0.5)); higher = stronger / more preferred TF binding; most listed sequences are background and not binding sites
# Settings: protein concentration: 200 nM; construct: GST-full length
# Method in brief: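 Detection of bound protein used fluorescent anti-GST, with scans normalised by masliner. The proteins were GST-tagged yeast transcription factors applied at about 100-200 nM to universal all-10-mer Agilent arrays made double-stranded by primer extension. Each ungapped eight-base word, pooled with its reverse complement, was scored with an E-score from the Universal PBM Analysis Suite.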
row,Sequence,PBM E-score
1,ACCTCGAC,-0.0368
2,GTTCCAAA,-0.00321
3,AATAGCAG,-0.158
4,AATCGGTG,-0.124
5,ATTCTATC,-0.0228
6,AGGACACC,0.0445
7,TAAAAACA,-0.116
8,GCACAGCC,0.0522
9,ACCCGATG,0.188
10,GCCGACAA,-0.0102
11,ATCTTTGA,-0.0512
12,CTTCAGCA,-0.227
13,AAGACTAG,-0.338
14,GTCTTGAA,-0.0317
15,AAGCCCGT,-0.162
16,AATGGGAG,-0.023
17,ACGTTGTG,-0.0586
18,CGGCGACA,0.164
19,GAGAAATC,-0.0602
20,ACGTCTCC,-0.107
21,GACTCCGA,0.253
22,CCAAACGC,-0.174
23,TGGGTAAA,-0.135
24,ATCACCCC,0.0523
25,AACTTATC,0.179

row,Sequence,PBM E-score
1,GCGCGTCC,0.127
2,AGCCCAGA,-0.0226
3,CCTAGCCG,0.0212
4,CTAAAAAC,-0.214
5,AAGGGGCG,-0.0939
6,AAGACCAA,-0.0835
7,GCGCTTCA,0.052
8,GAGACTGC,-0.0707
9,AAACTATG,-0.116
10,ACGTTAAA,-0.113
11,CCCTGCGC,-0.0563
12,TCGTGTCA,-0.13
13,ACTGATTA,0.0019
14,CGTTAAAG,0.0707
15,CGTGCTTC,0.175
16,CCACGTAG,-0.26
17,AAACCGAT,-0.024
18,CAGCGGCC,0.155
19,CGTTATAG,-0.0382
20,ATGTGGTG,0.0352
21,GCGGCTCA,0.0896
22,CATTTCTC,0.0391
23,TGAGAAAA,-0.138
24,GCACTGCC,0.0958
25,AACCCCCA,-0.111

row,Sequence,PBM E-score
1,GAGGTTCA,0.0391
2,ACAACAGA,-0.236
3,CGTACTTC,0.181
4,ATAGGCAG,-0.0967
5,ACATATCG,-0.0946
6,TACCCGAA,0.198
7,CGCACCTA,-0.177
8,CTAACAAG,-0.354
9,ACGTTCCT,0.0124
10,GGAATACA,0.277
11,ACCAAGAG,-0.183
12,CGGCGCCC,0.21
13,GAGCTCAA,0.153
14,ATCGGGGA,0.206
15,AGCGGATA,0.3
16,CGGCTCTC,0.0198
17,AGAGTGAA,-0.047
18,ACGACCAC,-0.106
19,AGAGGCGC,-0.182
20,GGCTAGAA,-0.116
21,ACGCCCCT,-0.285
22,CCCCACAA,0.0254
23,ACATTACG,0.00878
24,ATGCTTGC,-0.127
25,CGAAGCTA,-0.0672

row,Sequence,PBM E-score
1,GCAACAAA,-0.101
2,CCGACAGA,0.214
3,CGCCTCTA,-0.156
4,CTTTGGGA,-0.195
5,CTGTACAG,-0.121
6,AGGATCCT,-0.126
7,CAGCTCTC,-0.146
8,CAGCAGTA,-0.159
9,GCATTACC,-0.00316
10,TAGGACTA,-0.189
11,AAATCTTG,-0.0176
12,AAGACGGG,0.134
13,GACCGTAA,0.057
14,AGACGGAC,0.168
15,ACTGGAAG,-0.276
16,GCCTAAGC,-0.265
17,GAACGCCC,0.191
18,AATTTGGC,-0.0601
19,ACGAGCGC,-0.0358
20,AATTACGT,-0.244
21,ATGTGATA,-0.248
22,ATCCCCCA,-0.328
23,ACATATGG,-0.289
24,GGCGCAGA,-0.0213
25,CTACAACC,-0.206

row,Sequence,PBM E-score
1,ACGGTAGC,-0.0662
2,CTCGCTTC,-0.0941
3,TAGCATAA,-0.2
4,CACAATAG,-0.0942
5,GGCCGGAA,0.431
6,AACGTCGA,-0.00146
7,CAAACGTG,-0.0228
8,CTCCCACC,-0.254
9,CGTCAGGC,-0.0585
10,GAGGCCGA,0.156
11,GCGTACGA,-0.0757
12,TAATAGGA,-0.099
13,CGTCTAGA,-0.017
14,ACTTTATG,-0.163
15,GATGCCAA,-0.237
16,CGTGCTCA,0.0128
17,CCACGACG,0.0387
18,CGGCCGCC,0.298
19,AATTGTGC,-0.0745
20,CCTATCGA,-0.222
21,AAGTGCGG,0.158
22,CCATTGTC,-0.0439
23,ATTGGGGG,-0.152
24,AGCCGTAG,0.0635
25,ACATGTTC,-0.0348

row,Sequence,PBM E-score
1,GCCAGTAA,-0.0802
2,ACAATAGA,0.0562
3,CGCACTCA,0.0357
4,CGATAGAG,-0.211
5,ATTCCAAA,-0.0872
6,TGACCACA,-0.206
7,GGCCGGCA,0.367
8,AAACATAG,-0.151
9,ACTTCTAG,-0.306
10,CAGCGCCA,-0.189
11,CAATTATC,0.167
12,GTAGCGAA,-0.0192
13,ATTCGCCG,0.311
14,CGCGTAAG,-0.105
15,CGACACCA,-0.0808
16,CCGCTCCC,0.151
17,AGACTCAC,-0.274
18,ATAAGTAT,-0.0132
19,CTTCGTTA,-0.0724
20,CAGGTTAG,-0.137
21,ATATCTAG,-0.0524
22,AGGGTTTA,-0.151
23,TCTTTAAA,-0.0835
24,ATTGAGGG,-0.0242
25,ATCGTTTC,-0.0143

row,Sequence,PBM E-score
1,GCAAAGCC,-0.241
2,AAAACTAG,-0.0811
3,CCAGAACA,-0.0914
4,CGGTCTAA,-0.205
5,CGGGCGTA,0.0837
6,TCTTGACA,-0.162
7,ACTAAGTG,0.00995
8,GAGGAGCA,-0.091
9,GAAGTATA,0.256
10,GAGCATGA,-0.127
11,CCTGCACC,-0.0765
12,CATTATCC,0.231
13,CACGGTAC,0.103
14,GCGTTCTA,0.0812
15,AAAGATGG,-0.0562
16,CACAACTG,-0.337
17,GGCAGCAC,-0.132
18,CTTGGAAC,-0.0776
19,CAGATCCG,0.314
20,AAATAGCC,0.0302
21,GTTCTGAA,-0.122
22,CGGAGCGC,0.266
